# In the BET-seq Pho4 binding data (Le et al. 2018):
# Some of the results follow. These are noisy estimates, calculated here from bound and input reads.
# Biological target: T1, Pho4 (S. cerevisiae) (UniProt P07270)
# T1 sequence: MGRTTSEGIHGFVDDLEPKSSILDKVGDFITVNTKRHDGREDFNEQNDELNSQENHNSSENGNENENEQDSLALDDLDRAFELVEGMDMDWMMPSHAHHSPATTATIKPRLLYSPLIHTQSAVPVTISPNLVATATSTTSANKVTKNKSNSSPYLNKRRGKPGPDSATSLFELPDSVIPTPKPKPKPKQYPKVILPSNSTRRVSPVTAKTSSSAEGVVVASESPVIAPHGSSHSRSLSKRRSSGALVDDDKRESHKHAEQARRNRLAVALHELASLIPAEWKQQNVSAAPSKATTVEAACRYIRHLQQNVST
# Assay: relative binding free energy (BET-seq); higher = weaker binding
# Details: reference: library average
row,Sequence,relative binding free energy
1,TATAACACGTGATTTG,0.16 kcal/mol
2,ATATTCACGTGGGGCA,0.1 kcal/mol
3,TGGTGCACGTGGCGAT,0.02 kcal/mol
4,TCGCGCACGTGGGTAG,-0.28 kcal/mol
5,AGTTACACGTGATTGA,0.24 kcal/mol
6,AATTGCACGTGGTCGT,-0.16 kcal/mol
7,AGCTGCACGTGTTTTA,-0.03 kcal/mol
8,GGGGACACGTGGGATA,-0.09 kcal/mol
9,ATGTGCACGTGCTGGA,0.01 kcal/mol
10,ATTGACACGTGCATGT,-0.09 kcal/mol
11,AATGTCACGTGGAGTC,0.11 kcal/mol
12,TATATCACGTGAAAGT,0.29 kcal/mol
13,CTTGACACGTGGTAGA,-0.05 kcal/mol
14,AAAAGCACGTGTGGGC,0.08 kcal/mol
15,TTATGCACGTGGAGAA,0.08 kcal/mol
16,AGTGACACGTGAGATT,0.22 kcal/mol
17,TAGTACACGTGAATGG,0.3 kcal/mol
18,AGTTGCACGTGCAGAG,0.06 kcal/mol
19,GTGTCCACGTGCTGTT,0.01 kcal/mol
20,TGGGACACGTGGCATG,-0.13 kcal/mol
21,GGTTCCACGTGGGGTG,0.01 kcal/mol

row,Sequence,relative binding free energy
1,TACATCACGTGGGTTG,-0.1 kcal/mol
2,CAATACACGTGGGGTG,-0.11 kcal/mol
3,GTATCCACGTGAGGGT,0.25 kcal/mol
4,GTGCGCACGTGGTAAT,-0.17 kcal/mol
5,AGGGTCACGTGTAATC,0.28 kcal/mol
6,AAAGTCACGTGGTGGG,0.07 kcal/mol
7,GTTAGCACGTGTGGTA,-0.03 kcal/mol
8,GGAAACACGTGCTGGG,0.06 kcal/mol
9,TAGTTCACGTGGCTGT,0.24 kcal/mol
10,TGTCACACGTGTGTAG,-0.02 kcal/mol
11,GTCTTCACGTGGATGA,0.33 kcal/mol
12,GGATGCACGTGTGTCA,0.02 kcal/mol
13,TAGGGCACGTGGATGT,-0.13 kcal/mol
14,TGTTGCACGTGCAGTA,-0.13 kcal/mol
15,TTATGCACGTGTTATG,0.05 kcal/mol
16,TGTACCACGTGGTTGC,0.09 kcal/mol
17,TATTGCACGTGTTACT,0.03 kcal/mol
18,GAGGACACGTGGAAGT,0.24 kcal/mol
19,AGCTTCACGTGTAGTT,0.2 kcal/mol
20,TTGGCCACGTGAGGTG,0.09 kcal/mol
21,GGATTCACGTGCGGTT,0.37 kcal/mol

row,Sequence,relative binding free energy
1,GTCAGCACGTGGTGGC,-0.13 kcal/mol
2,AGTTACACGTGTGTGA,0.12 kcal/mol
3,TTGTACACGTGTCTTA,-0.02 kcal/mol
4,CGTGTCACGTGTGTTC,0.12 kcal/mol
5,AGTTGCACGTGTGCGA,-0.1 kcal/mol
6,CTGAGCACGTGGTAAT,-0.02 kcal/mol
7,AATCTCACGTGTTTTA,0.17 kcal/mol
8,GGGAACACGTGTCGTG,-0.04 kcal/mol
9,TTGTTCACGTGCTGTT,0.22 kcal/mol
10,TAGTTCACGTGCGGAG,0.19 kcal/mol
11,AAGAGCACGTGATGTT,-0.06 kcal/mol
12,GTGCTCACGTGGGCGC,0.18 kcal/mol
13,TGCTTCACGTGTAATT,0.38 kcal/mol
14,CGCGGCACGTGTAGGT,-0.05 kcal/mol
15,AAGGGCACGTGGTTTT,-0.1 kcal/mol
16,GGATACACGTGTTTTT,0.24 kcal/mol
17,CTGGTCACGTGGCGGT,-0.03 kcal/mol
18,AAATTCACGTGTGTTG,0.29 kcal/mol
19,TTAGGCACGTGAGAGG,0.11 kcal/mol
20,ATGACCACGTGGGTGG,-0.3 kcal/mol
21,CGGGACACGTGAGTTA,0.33 kcal/mol
